Some of the results follow.

For this test, the target named is T1, OsWOX13 (Oryza sativa, UniProt Q5QMM3 1-267).
T1 sequence: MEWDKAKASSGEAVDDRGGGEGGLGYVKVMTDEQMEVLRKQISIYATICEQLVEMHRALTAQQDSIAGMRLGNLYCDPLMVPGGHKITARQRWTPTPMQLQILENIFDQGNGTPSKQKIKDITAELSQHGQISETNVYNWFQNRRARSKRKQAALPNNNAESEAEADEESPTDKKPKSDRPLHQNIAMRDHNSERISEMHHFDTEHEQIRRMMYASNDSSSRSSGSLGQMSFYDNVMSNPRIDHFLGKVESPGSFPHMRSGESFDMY
Nature of the test: protein-binding microarray (RPBM); PBS, 2% BSA, 51.3 ng/ul salmon testes DNA, 50 uM zinc acetate, 200 nM TF, 25 C, 1 h; high values mean tight binding. The settings on record: protein: recombinant; tags: N-terminal polyhistidine and DsRed monomer fusion (pET32a); label: CyDye5-dUTP incorporated in the synthesized complementary strand; 3' TTTTT single-stranded linker to array surface; dsDNA, one strand shown. The gist of the method: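 The binding signal is fluorescence intensity per feature, in arbitrary units, read on an Axon 4000B scanner. Polyhistidine- and DsRed-tagged transcription factors (N-terminal fusions) from E. coli BL21-CodonPlus were purified on Ni–NTA and applied at 200 nM for 1 h at 25 °C to a double-stranded, BSA-blocked custom Agilent array in buffer with 50 µM zinc acetate.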
As to “TCCTCTCTTGATTATGTGGGTCTCGTTTTCTCTTACACTGCGGAGTCACCTAGTGCAG”, the binding signal was 10300 fluorescence intensity (a.u.).
For “GATTACAGACTGACAGTTAAATTGGTTCGCTAAGTGTGATCGGAGTCACCTAGTGCAG” the value was 24100 fluorescence intensity (a.u.).
For “CACTTACTGACGTAAACAGCAGAATATTTCCTGTGTATTGCGGAGTCACCTAGTGCAG” the value was 3970 fluorescence intensity (a.u.).
Under “AAAGATTGGGTCAGGCTTGAGTGTTTGTTCCAACGATTCGCGGAGTCACCTAGTGCAG” stands 6630 fluorescence intensity (a.u.).
Regarding “ATCATAACTCCATCAGATAATTTGTGCAGAACGGCAGAACCGGAGTCACCTAGTGCAG”, the binding signal was 5500 fluorescence intensity (a.u.).
Consider “CACTCAAATTAGCATAATCAACTCCGTAGACAAGCAGGCACGGAGTCACCTAGTGCAG”, for which the binding signal was 31400 fluorescence intensity (a.u.).
For “CTATGATGTTCTATTCAATTATTTTGTTTGTTCTTGTTATCGGAGTCACCTAGTGCAG” the value was 3910 fluorescence intensity (a.u.); for “TTTAATGGAGAAGATGCCATAGTTAATTGCATGCTTGCATCGGAGTCACCTAGTGCAG”, 14600 fluorescence intensity (a.u.).
Under “AAAGTCAAAATTTGATTGCAGTATAGCTCTGACCTGAAATCGGAGTCACCTAGTGCAG” stands 6520 fluorescence intensity (a.u.); under “ATTAATTTTCTTGTAATATTACTCCCTCCATTCCATAATACGGAGTCACCTAGTGCAG”, 11300 fluorescence intensity (a.u.).
Under “ATTGACATTAATGATTAATTGCTAGTGCCCAACCAAAACACGGAGTCACCTAGTGCAG” stands 34600 fluorescence intensity (a.u.); under “TGAAAATTTAGGCTAAATTTCTGGGCGTGACACTAGCCCACGGAGTCACCTAGTGCAG”, 13400 fluorescence intensity (a.u.).
For “GTAATTGACAACTGACAACCGACAGTTATTGACTCATTCCCGGAGTCACCTAGTGCAG”, the binding signal is 54900 fluorescence intensity (a.u.).
For “AAACTATTTATATAAATTATATGTAATAACCTGCTGATTACGGAGTCACCTAGTGCAG” the value was 8500 fluorescence intensity (a.u.); for “TTATGTCAATCAAATGTAACCTTAATTCTTCATATTGTTTCGGAGTCACCTAGTGCAG”, 12900 fluorescence intensity (a.u.).
Consider “GAACTGATGATCAGCTCGGTGACAATAATTTCAGCAAAGGCGGAGTCACCTAGTGCAG”, for which the binding signal is 3260 fluorescence intensity (a.u.).
Take “AAATCTGATTTGCCATTGATAACATGAAAGCTCAAGAGCTCGGAGTCACCTAGTGCAG”: the binding signal is 16400 fluorescence intensity (a.u.).
Under “ATGTTAACAGAACAATATATACTATCATGGAACACTAGAACGGAGTCACCTAGTGCAG” stands 4610 fluorescence intensity (a.u.).
For “TTTAATCATGGACATGATCAATTGATCAGAACAACAAACACGGAGTCACCTAGTGCAG” the value was 7730 fluorescence intensity (a.u.); for “GTGGGGATTGGGGATCGGAGAGAAGGGGAAATTTTGGACGCGGAGTCACCTAGTGCAG”, 4740 fluorescence intensity (a.u.).
Under “GCAGTATTCATTTGTGTGATTAATTAGTGGTGAGTAAACACGGAGTCACCTAGTGCAG” stands 11600 fluorescence intensity (a.u.); under “TTTGATTTGCATACATGTAATCCTCAAGATATCTCCACGTCGGAGTCACCTAGTGCAG”, 38800 fluorescence intensity (a.u.).
For “CTGACAAATTAGAGACTACAGAGCAAAAGGTTCAGACATACGGAGTCACCTAGTGCAG”, the binding signal was 7000 fluorescence intensity (a.u.).

The values above are taken from paper PMC7819943, “Rice protein-binding microarrays: a tool to detect cis-acting elements near promoter regions in rice”.
